# Assay results: US7153977B2, “Ligands and methods for preparing same” (National University of Singapore, priority 2000, dated 2006)
# What was measured:
# Experiment in all cases: NEM inhibition of equilibrative 3H-uridine transport in SP2/0-Ag14 cells
# [1] = target: T1, equilibrative nucleoside transporter (es and ei) in murine myeloma SP2/0-Ag14 cells (Mus musculus, UniProt Q61672); conditions: SP2/0-Ag14 cells; NEM-insensitive component
# T1 sequence (Q61672 1-456): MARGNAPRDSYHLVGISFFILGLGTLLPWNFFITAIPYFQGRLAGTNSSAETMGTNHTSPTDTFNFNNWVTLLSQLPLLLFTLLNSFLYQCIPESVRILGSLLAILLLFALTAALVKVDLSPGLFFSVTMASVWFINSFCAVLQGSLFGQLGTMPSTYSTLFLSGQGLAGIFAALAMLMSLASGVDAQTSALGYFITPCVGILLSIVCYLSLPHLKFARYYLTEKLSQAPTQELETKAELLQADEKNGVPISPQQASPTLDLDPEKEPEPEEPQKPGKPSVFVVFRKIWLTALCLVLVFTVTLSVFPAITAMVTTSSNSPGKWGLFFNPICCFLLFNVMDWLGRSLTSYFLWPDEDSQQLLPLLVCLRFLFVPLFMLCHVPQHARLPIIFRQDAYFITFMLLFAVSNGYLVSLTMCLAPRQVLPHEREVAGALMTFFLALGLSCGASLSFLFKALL
# [2] = system: equilibrative nucleoside transporter (es and ei) in murine myeloma SP2/0-Ag14 cells; conditions: SP2/0-Ag14 cells; component with IC50 0.15 mM
# [3] = target: T2, equilibrative nucleoside transporter (es and ei) in murine myeloma SP2/0-Ag14 cells (Mus musculus, UniProt Q9JIM1)
# T2 sequence (Q9JIM1 1-460): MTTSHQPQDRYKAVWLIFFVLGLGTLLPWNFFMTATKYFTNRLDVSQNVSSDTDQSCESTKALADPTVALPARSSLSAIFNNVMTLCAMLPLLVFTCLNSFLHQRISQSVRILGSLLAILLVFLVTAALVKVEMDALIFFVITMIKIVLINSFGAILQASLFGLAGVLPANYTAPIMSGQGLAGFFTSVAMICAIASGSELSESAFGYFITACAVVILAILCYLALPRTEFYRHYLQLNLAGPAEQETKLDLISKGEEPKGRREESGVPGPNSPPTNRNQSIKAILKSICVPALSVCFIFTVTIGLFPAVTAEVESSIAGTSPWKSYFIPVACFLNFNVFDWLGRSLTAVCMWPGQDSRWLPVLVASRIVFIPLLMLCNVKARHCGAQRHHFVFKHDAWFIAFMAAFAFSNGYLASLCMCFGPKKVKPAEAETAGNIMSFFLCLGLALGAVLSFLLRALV
smiles,measurement,setting,value
"CCN1C(=O)C=CC1=O [NEM, N-Ethylmaleimide]",NEM concentration gradually abolishing the remaining 30–40% of transport activity,[1],above 3 mM
same,share of transport activity inhibited by NEM (sensitive component),[2],60–70%
same,IC50,[3],150 µM
